Experimental data from the supplement of paper PMC10126150.
Sequences with one replicate were seen in a single cluster, so their values are uncertain.

system: ATP; assay: switch fluorescence ratio, 500 uM ATP over buffer (Cy3 cluster intensity, sum of 5 cycles each) (fold (ratio)); higher = stronger signal-on switching upon ATP binding; sequences stand for … in TCGTCGGCAGCGTCAGATGTGTATAAGAGACAGTTTTTTTTTTTTTTTTTTTTTTTTT…TC; conditions: aptamer strand: ATP DNA aptamer (quencher-CACCTGGGGGAGTATTGCGGAGGAAGG + anchor), 100 nM annealed; ATP concentration: 500 uM; one replicate
Summary of the method: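 Between each of five buffer/ATP cycles, the flow-cell was stripped with NaOH and re-annealed. Each cycle imaged Cy3-labelled switching-strand clusters, annealed to 100 nM quencher-labelled ATP aptamer on a modified Illumina MiSeq flow-cell, first in selection buffer and then after 15 min with 500 uM ATP at 22 °C. The fluorescence ratio is summed target-cycle over summed buffer-cycle Cy3 intensity per cluster, averaged per switch-domain sequence, with clusters outside 100-1000 RFU excluded.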
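Further: ATP exposure 15 min at 22 °C before imaging.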

Sequence	switch fluorescence ratio
TTACGGCACT	1.69
TTACGGGACT	1.22
TTACGGTTCG	1.06
TTACGTAGGT	1.1
TTACGTTGGT	0.971
TTACTAAAGT	0.981
TTACTACACT	1.35
TTACTCCCGG	1.69
TTACTCTGTC	1.03
TTACTGGCA	1.06
TTACTGTGCG	1
TTACTGTTAT	1.09
TTACTTGGG	0.956
TTACTTGGTA	1.01
TTACTTTTGG	0.992
TTAGACACAC	1.42
TTAGACAGGC	0.975
TTAGACCATA	0.974
TTAGACCTGT	1.01
TTAGACGACA	1.14
TTAGACTGCG	0.999
TTAGAGATG	0.968
TTAGATAAGT	1.02
TTAGATGCA	0.96
TTAGATGGAA	0.998
TTAGATGGTA	0.977

Sequence	switch fluorescence ratio
TTAGCAACCG	1.33
TTAGCACGGC	1.05
TTAGCATCA	1
TTAGCATCCT	1.1
TTAGCCAGGA	0.98
TTAGCCTGCT	1.05
TTAGCGGTTT	1.05
TTAGCGTCA	0.985
TTAGCTAACA	1.01
TTAGCTAGAA	0.988
TTAGCTATAT	4.36
TTAGCTCGG	0.956
TTAGCTGTCT	1.01
TTAGGCGGTC	1.04
TTAGGGAGAC	1.06
TTAGGGAGGC	1.03
TTAGGGCAAT	1.83
TTAGGTCAAG	0.99
TTAGGTCCCG	0.99
TTAGGTGTGC	0.999
TTAGGTTAAG	0.968
TTAGGTTCGG	0.935
TTAGTAGGGC	0.911
TTAGTCAGAC	1.15
TTAGTCTCTA	0.985
TTAGTCTTCA	0.979

Sequence	switch fluorescence ratio
TTAGTGCGT	0.928
TTAGTGTGG	0.967
TTAGTTAGCT	1
TTAGTTCTAT	0.961
TTATAAATGA	0.991
TTATAAGATG	0.998
TTATAAGGTA	1.04
TTATAAGTA	0.988
TTATACCCCA	1.08
TTATACGCCC	1.28
TTATACTCTC	0.998
TTATAGAACT	1.01
TTATAGGAGT	0.998
TTATAGTGGT	0.979
TTATAGTGT	1.05
TTATAGTTAA	0.99
TTATATAGTT	1.02
TTATATCTTT	1
TTATATGGCA	1.01
TTATATGTTC	1.04
TTATATTTCC	1.04
TTATCACATC	0.926
TTATCAGTCG	0.971
TTATCAGTTC	0.963
TTATCGAAGC	1.14
TTATCGATTA	0.99

Sequence	switch fluorescence ratio
TTATCGGGTA	1
TTATCGTAGT	0.995
TTATCGTGCA	1
TTATCGTTTT	1.01
TTATCTAAAC	1.16
TTATCTAGAT	0.941
TTATGAATCT	0.974
TTATGAATG	0.966
TTATGAGGTA	1.01
TTATGATCGA	0.902
TTATGATCGT	1
TTATGGCAGG	1.01
TTATGGGCCT	0.982
TTATGGTCGA	0.961
TTATGTACCT	1.2
TTATGTATAA	0.986
TTATGTCCAG	1.02
TTATGTCCCG	1
TTATGTCGCT	0.957
TTATGTTCCG	0.97
TTATTACAAC	0.99
TTATTACGGC	1.06
TTATTAGAT	1.03
TTATTAGCT	1.02
TTATTCAAG	0.998
TTATTCAAGT	1.01

Sequence	switch fluorescence ratio
TTATTCAATG	1
TTATTCAGAA	0.946
TTATTCATCC	1
TTATTCCGAC	1.48
TTATTCCGGG	1.05
TTATTCGCAT	1.4
TTATTCTAGT	1
TTATTGATCG	0.976
TTATTGCCGA	1.03
TTCAAAAGGT	0.993
TTCAACCACG	1.08
TTCAACGGGT	1.02
TTCAACTTTC	1.09
TTCAAGCTTC	1.04
TTCAAGTAAG	1.03
TTCAATACTA	1.17
TTCAATAGAT	0.933
TTCAATCCTC	1.21
TTCAATCGTT	1.03
TTCAATGTGG	0.986
TTCACAAAAT	0.97
TTCACAAGCA	1.08
TTCACATTTG	1.01
TTCACCATTA	1.01
TTCACCGGTA	0.964
TTCACCTGAG	1.08

Sequence	switch fluorescence ratio
TTCACGCAAC	2.08
TTCACGGTCA	1.04
TTCACTGATT	1.02
TTCACTGTAG	1.14
TTCACTTAGA	1.02
TTCAGCTAAG	1.02
TTCAGTGGAT	1.03
TTCAGTGTTC	1.01
TTCATCTATT	1.03
TTCATCTTTC	1.12
TTCATGTAGG	1.01
TTCATTCGTA	0.994
TTCATTGTCA	1
TTCCACATAG	1.01
TTCCACGGGA	1.07
TTCCACTGAT	1.02
TTCCAGACGT	0.947
TTCCAGAGGA	0.987
TTCCATACTT	1.02
TTCCATGGGT	1.02
TTCCCAAAAT	1.55
TTCCCAAAGA	1.03
TTCCCAAGTC	1.16
TTCCCAGCTA	2.83
TTCCCCTCGG	1.17
TTCCCGACAT	1.05

Sequence	switch fluorescence ratio
TTCCCTAAC	1.04
TTCCGCGGTG	1.04
TTCCGCTTTG	1.2
TTCCGGAGGT	1.14
TTCCGGATCG	1.05
TTCCGGTCAC	1.33
TTCCGTAATC	4.88
TTCCGTTAGG	0.989
TTCCGTTTGG	0.979
TTCCTACGTT	1.18
TTCCTCGGTT	1.17
TTCCTCGTGG	1
TTCCTGACAA	1.01
TTCCTGATTA	1.01
TTCCTGGTA	1
TTCCTGTTG	1.03
TTCCTTAT	1.01
TTCGAAGATG	1.05
TTCGAGGAAA	0.98
TTCGATTACC	0.967
TTCGATTAGG	0.997
TTCGATTGGT	1.01
TTCGATTTCT	1.05
TTCGCAATTT	3.74
TTCGCACAAG	1.04
TTCGCACAG	2.56

Sequence	switch fluorescence ratio
TTCGCCCTTC	0.955
TTCGCGCCGG	0.995
TTCGCGGATT	1
TTCGCGTTAC	3.8
TTCGCTAGG	1.8
TTCGCTGTCG	0.988
TTCGCTTGTG	1.01
TTCGGCAAAC	3.6
TTCGGCGAAA	1.06
TTCGGCGCAT	2.64
TTCGGCTTAC	1.79
TTCGGGACGT	1.02
TTCGGGCGCA	1.09
TTCGGTAGAG	0.991
TTCGGTCATG	0.987
TTCGGTTGAA	1.02
TTCGGTTGTT	0.983
TTCGGTTTCT	0.993
TTCGTAAATC	1.04
